Measurements from PubChem BioAssay (NCATS).
Several values for one entry are separate records, joined by “and”; a condition that tells them apart may be missing. Equal entries are not always repeated. Inconclusive means that the source gave no clear call. Such entries were picked first, then a sample of the others. For some of these results: Potencies of inconclusive entries are left out as doubtful fits. Activity calls are given as the source filed them. Unless noted, the call rests on the fitted dose curve; in most records, active means well fitted curve in either direction with a large enough effect (not every such curve was filed as active); inconclusive means small, poorly fitted or top-dose-only effect, or another doubt; inactive means flat fitted curve, though single readings scatter.

tested on: not listed separately; assay: AP1 Signaling Pathway (AID 357); conditions: ME-180 AP-1-bla reporter, EGF-induced, beta-lactamase ratio, 5 h; at 17.2 µM (top of the series); further: top concentration of the series differs between compounds; on the % scale 0 is the no-effect control and ±100 the full control effect
Summary of the method: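 ME-180 cells with beta-lactamase reporter under AP-1 response element, stimulated with EC50 EGF; compounds tested in titration series, 5 h at 37 °C. CCF4 substrate added 2.5 h at room temperature; 460/530 nm emission ratio gave %activity and AC50.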

Row | SMILES | activity change, negative = inhibition
1 | NC12CC3CC(CC(C3)C1)C2 | inactive: 4.92%
2 | OCCN(CCO)c1nc(N2CCCCC2)c2nc(N(CCO)CCO)nc(N3CCCCC3)c2n1 | inconclusive: -34.4% [inhibitor] and inconclusive: -48.8% [inhibitor]
3 | CCCc1cc(=O)[nH]c(=S)[nH]1 | inactive: -3.34% and inactive: 2.9%
4 | COc1cc2nc(N3CCN(C(=O)c4ccco4)CC3)nc(N)c2cc1OC | inconclusive: -42.2% [inhibitor] and inconclusive: -36.2% [inhibitor]
5 | O=c1cc(-c2ccc(O)c(O)c2)oc2cc(O)cc(O)c12 | inconclusive: -110% [inhibitor]
6 | CCOC(=O)C1=C[C@]2(CC)CCCN3CCc4c(n1c1ccccc41)[C@@H]32 | inconclusive: 42.4% [activator]
7 | Clc1ccccc1C(c1ccccc1)(c1ccccc1)n1ccnc1 | inconclusive: -63% [inhibitor]
8 | CC(COc1ccccc1)N(CCCl)Cc1ccccc1 (stereo not given) | inactive: 2.97%
9 | CN1CCC(=C2c3ccccc3C=Cc3ccccc32)CC1 | inconclusive: 71.7% [activator]

same assay, conditions: ME-180 (cervical carcinoma) AP-1-bla reporter, EGF-induced, beta-lactamase ratio, 5 h; at 38 µM (top of the series)

Row | SMILES | activity change, negative = inhibition
10 | NC12CC3CC(CC(C3)C1)C2 | inactive: 6.95%
11 | Nc1nc(OCc2ccccc2)c2[nH]cnc2n1 | inactive: 0.477%
12 | OCCN(CCO)c1nc(N2CCCCC2)c2nc(N(CCO)CCO)nc(N3CCCCC3)c2n1 | inconclusive: -57.9% [inhibitor]
13 | Clc1ccccc1C(c1ccccc1)(c1ccccc1)n1ccnc1 | inconclusive: -55.2% [inhibitor]
14 | O=C1c2ccccc2-c2n[nH]c3cccc1c23 | inactive: 8.85%
15 | CN1CCC(=C2c3ccccc3C=Cc3ccccc32)CC1 | inconclusive: 67.4% [activator]

target: Cytochrome P450 1A2 (Homo sapiens) (UniProt P05177); assay: p450-cyp1a2 (AID 410; calls by dose curve; further: potency means the concentration at half of the fitted maximal effect;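 on activity change, negative = inhibition: top concentration of the series differs between compounds; -100% = full effect of reference inhibitor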); conditions: recombinant CYP1A2, luciferin-ME demethylation, luminescence; series mostly up to 57 µM
Summary of the method: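 Human CYP1A2 (20nM) demethylated Luciferin-ME at its Km (100uM) in 100mM KPO4. After 10 min compound preincubation, NADPH regeneration ran the reaction 60 min at room temperature. Luciferin was read by luminescence, normalized to 57 uM furafylline.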

UniProt P05177, sequence (P05177 whole entry, looked up): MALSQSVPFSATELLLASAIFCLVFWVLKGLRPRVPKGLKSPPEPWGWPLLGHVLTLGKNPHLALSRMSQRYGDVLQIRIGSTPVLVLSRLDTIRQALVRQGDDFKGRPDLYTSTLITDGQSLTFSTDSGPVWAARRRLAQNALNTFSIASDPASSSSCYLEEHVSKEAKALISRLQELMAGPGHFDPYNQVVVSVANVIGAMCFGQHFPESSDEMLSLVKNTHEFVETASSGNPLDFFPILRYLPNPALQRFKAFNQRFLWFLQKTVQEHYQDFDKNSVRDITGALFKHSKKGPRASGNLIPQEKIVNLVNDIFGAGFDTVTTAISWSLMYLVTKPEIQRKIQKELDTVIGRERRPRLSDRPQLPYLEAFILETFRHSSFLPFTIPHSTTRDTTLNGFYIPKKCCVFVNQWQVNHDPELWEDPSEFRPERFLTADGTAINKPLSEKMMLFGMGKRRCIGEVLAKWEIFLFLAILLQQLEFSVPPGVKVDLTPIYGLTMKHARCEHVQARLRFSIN

Row | SMILES | Potency | activity change, negative = inhibition
16 | Cn1c(=O)c2[nH]cnc2n(C)c1=O | inconclusive [decreasing] | –
17 | CC[C@H](NC(C)C)[C@H](O)c1ccc(O)c2[nH]c(=O)ccc12 | inconclusive [decreasing] | –
18 | NC(=O)OCC(COC(N)=O)c1ccccc1 | inconclusive [decreasing] | –
19 | CN1CCN2c3ncccc3Cc3ccccc3C2C1 (stereo not given) | inconclusive [decreasing] | –
20 | Cc1noc(NS(=O)(=O)c2ccc(N)cc2)c1C | inactive | –
21 | NC(=O)c1nnn(Cc2cc(Cl)c(C(=O)c3ccc(Cl)cc3)c(Cl)c2)c1N | – | inactive: -2.2% [at 2.29 µM]
22 | COc1nccc(-c2c(-c3ccc(F)cc3)ncn2C2CCC(O)CC2)n1 (stereo not given) | inconclusive [decreasing] | –
23 | CN1CCC(=C2c3ccccc3CC(=O)c3sccc32)CC1 | inconclusive [decreasing] | –
24 | O=C1N(c2ccccc2)c2ccccc2C1(Cc1ccncc1)Cc1ccncc1 | inconclusive [decreasing] | –
25 | COc1cc2nc(N3CCN(C(=O)c4ccco4)CC3)nc(N)c2cc1OC | inconclusive [decreasing] | –
26 | CCOC(=O)Nc1ccc(NCc2ccc(F)cc2)nc1N | inconclusive [decreasing] | –
27 | CCCCC(C=O)NC(=O)C(CC(C)C)NC(=O)OCc1ccccc1 (stereo not given) | inconclusive [decreasing] | –
28 | CN1CCC(=C2c3ccccc3C=Cc3ccccc32)CC1 | inconclusive [decreasing] | –

tested on: not listed separately; assay: NFAT Signaling Pathway (AID 444); conditions: Jurkat NFAT-bla M1, carbachol, beta-lactamase ratio, 5 h; at 17.2 µM (top of the series);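 further: carbachol stimulus at about its EC50 of 1 µM final; on the % scale 0 is the no-effect control and ±100 the full control effect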
Summary of the method: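 Jurkat cells carrying an NFAT-driven β-lactamase reporter and co-transfected muscarinic M1 receptor were treated with compound plus carbachol (1 uM final, an EC50 level) for 5 h at 37 °C. CCF4 loading followed for 1 h at RT; 460/530 nm ratio gave %activity.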

Row | SMILES | activity change, negative = inhibition
29 | N#Cc1ccc(C(c2ccc(C#N)cc2)n2cncn2)cc1 | inactive: -8.25%
30 | Cc1cc(=O)oc2cc(O)ccc12 | inconclusive: -59.7% [inhibitor]
31 | COc1cc([C@@H]2c3cc4c(cc3[C@H](O)[C@H]3COC(=O)[C@H]23)OCO4)cc(OC)c1OC | inconclusive: -30.5% [inhibitor]
32 | CCC1=C(C)CN(C(=O)NCCc2ccc(S(=O)(=O)NC(=O)NC3CCC(C)CC3)cc2)C1=O (stereo not given) | inactive: 4.19%
33 | CCCOc1ccc2nc(NC(=O)OC)[nH]c2c1 | inconclusive: -38.2% [inhibitor]
34 | CN1CCC(=C2c3ccccc3CC(=O)c3sccc32)CC1 | inconclusive: -60.9% [inhibitor] and active: -94.3%
35 | COc1cc2nc(N3CCN(C(=O)c4ccco4)CC3)nc(N)c2cc1OC | inconclusive: -103% [inhibitor] and inconclusive: -117% [inhibitor]
36 | Cc1cc(C2CCCCC2)n(O)c(=O)c1 | inconclusive: -30.6% [inhibitor]
37 | CCOC(=O)C1=C[C@]2(CC)CCCN3CCc4c(n1c1ccccc41)[C@@H]32 | inconclusive: -56.3% [inhibitor]
38 | Clc1ccccc1C(c1ccccc1)(c1ccccc1)n1ccnc1 | inconclusive: -91.9% [inhibitor]
39 | CC(COc1ccccc1)N(CCCl)Cc1ccccc1 (stereo not given) | inconclusive: -100% [inhibitor]
40 | CN1CCC(=C2c3ccccc3C=Cc3ccccc32)CC1 | inconclusive: -35.5% [inhibitor] and active: -67.8%
